Results taken from the supplement of paper PMC10126150.
Values marked as one replicate rest on one cluster of the flow cell; about a third of the high ones do not repeat.

system: ATP; assay: switch fluorescence ratio, 500 uM ATP over buffer (Cy3 cluster intensity, sum of 5 cycles each) (fold (ratio)); higher = stronger signal-on switching upon ATP binding; sequences stand for … in TCGTCGGCAGCGTCAGATGTGTATAAGAGACAGTTTTTTTTTTTTTTTTTTTTTTTTT…TC; details: aptamer strand: ATP DNA aptamer (quencher-CACCTGGGGGAGTATTGCGGAGGAAGG + anchor), 100 nM annealed; ATP concentration: 500 uM; one replicate
In short: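 Cy3-labelled switching-strand clusters on a modified Illumina MiSeq flow-cell were annealed to 100 nM quencher-labelled ATP aptamer, imaged in selection buffer, then imaged after 15 min with 500 uM ATP at 22 °C. Five buffer/ATP cycles ran, with NaOH stripping and re-annealing between them. The fluorescence ratio is summed target-cycle over summed buffer-cycle Cy3 intensity per cluster, averaged per switch-domain sequence. Clusters outside 100-1000 RFU were excluded.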
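Note: ATP exposure 15 min at 22 °C before imaging.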

Sequence	switch fluorescence ratio
GCGTGAGAGC	1.15
CGAAGTCACA	1.16
TGGCGCCACG	1.01
TCCATAGACA	1.02
TGAAAGTTAG	0.971
ATTGCTCAAA	0.98
GGGCACAGAG	1
CAGCGGCCCG	1.02
ATATCCGCGT	1.27
TGAATTTTCA	1.03
GTAGGGATCG	1.01
CCCTCTAATC	1.15
AGCTCCG	1.05
AAATGCAAC	1.1
CTATGGAGTC	0.992
TTTCGGTGGT	0.891
TTTTACTG	0.904
TTCGTATTCT	1.02
ATGGTTACTA	1.04
ACATATCTTA	1.02
GTCGAGCTGA	1.03
AGGCCTTGG	1
GGTATACCGA	0.979

Sequence	switch fluorescence ratio
TTGTGTACGC	1.02
GTCAAATTTT	1.02
CGAGGGTTTT	1
TGCCAAGAGC	1.05
ACTGGGACTA	1.15
CCCAGAACCG	1.07
TATCTTCACG	1.03
ATAGATAGAG	0.956
CTCGGTGATA	1.08
AAGGTAATGT	1.01
GGACCCGACC	1.14
GCAATATAGG	1.24
CGTGTGCTGC	0.958
TGCAACGCTT	0.991
GGACACATTG	1.04
GAAAAAAACC	0.992
TTAGGTCGTG	0.992
AGTGCTATTG	0.985
TCATACATGC	1.07
GTCTGGGATT	1.02
ATTAATTTGG	0.954
AACGCGAAAT	1.11
GAGAGTCCGG	1.03

Sequence	switch fluorescence ratio
CTGTATGCGT	1.01
TCGTTTATAA	0.986
ACTATCATCC	1.02
AGGTTTACGC	0.978
ATTGAATACA	1.02
CTAGGACCGA	1
TTTCTGGGCA	0.974
TTAGGCAAAT	0.985
CGTATGACGG	0.988
TCCGGACGG	0.977
TGGCCGAGCG	1.03
TGGTCCCGCG	0.977
TTTGTGTACA	1.01
GCATATAGCA	0.965
CTTAGACTTA	0.991
GATCCATCGT	1.03
TGATGACA	1
ACACCGTAAG	1.02
GCGTTCGCAG	0.972
TCTTTGCCAG	1.03
AGGCACGGGT	0.978
CTAACTACGG	1.06
GTGTTTGGTC	0.944

Sequence	switch fluorescence ratio
CTCGAAGCGT	1.07
TCCTGAGAGG	1.04
TTTAACGCA	1.09
GTGCAAAC	1.06
TAAATAGTTC	1.03
CCCCAGAAAA	1.17
CAGCTCCTGT	0.995
ACCCAGGCAG	1.31
TTGGCGCGAA	1.06
CAGATTTAAC	0.99
TGGGAAGTAA	0.983
TTTACTATGC	1.06
GATTATGCTA	0.99
CTATAATCTG	1.03
CACCGAGTAT	1.04
GTTCTATAAG	1.02
GCGGTGCACA	1.05
TGAAGTTTAT	0.98
TGGTAACAAG	1
TGACGTAGCC	1.44
CACGAACCGA	1.44
AATCAGAATG	0.989
TAAGACAGAA	1.05

Sequence	switch fluorescence ratio
GCGTCGCCTG	1.01
CGCTGCGAGG	1.04
GCAAATGGC	1.03
TGTGTAATCG	0.99
AAGGGATGAC	0.979
TAAGTGTCAG	0.959
AGCTCCTTAA	1.31
AAAGTAGGCA	0.985
TTGCAGAGTG	1.02
TGGCTGATAC	2.29
GGGTTTAAGA	1.02
TAGGCCTGAG	1.03
TTATCCATCC	1.11
TAGATGTAAT	0.943
CCGTGATTTC	0.999
TCATGCGCGC	1.04
TGTTCTTAAA	0.964
CCGTGATATA	1.33
CCTTTTTGCT	0.982
GGGAGTAATT	0.957
ACTAAGGGAT	1.01
CGAGTAGCGA	0.973
CGATGTAAAT	1.05

Sequence	switch fluorescence ratio
ATAGGCATTA	0.983
CATTGGGAGG	1.03
TTTGACGGAG	0.973
CCGGTCCTTA	1.06
AGGCCTTGCT	0.946
GAACCCGTCC	1.68
GAGATGGGTT	1.07
ACGGGGAAAC	1.06
TCTATGTTTT	0.981
TGCGCGTAGC	0.969
GTTGTGTCTC	1
CAAAGGTGCT	4.62
CTGGAGGGCG	1.06
AACAATTTCC	1.16
GGGCGTGAAA	0.997
CCTGCGTGCT	1.41
ATACAAAGTC	1.05
TGCTAAGATT	1.01
TAAATCGGTC	1.02
CGGTCACGTG	1.02
AGTATGGGTG	0.999
GCAGTTAAAT	1.01
GTTACACCTG	1.02

Sequence	switch fluorescence ratio
CTGTTGCAGG	0.971
ATATGGAAGC	1.03
AGTCTCAGAA	0.932
GTGTGCTACA	1.03
TGGGTACTAA	0.993
CTTTGTCCGC	2.73
GTAAGGTT	0.993
TTTCGTAGTA	0.993
ATGCCACGCG	1.08
TGTATGGAAT	1.16
CCTGACCTTG	0.998
GACGGATAAG	0.977
ATCGGTATGG	0.933
GATGTCAAAG	1.03
TTGTCATGCT	0.989
AATAACACGG	1.04
GCATATCCTC	1.21
GCTTTAACGG	1
CAGCGTGGGC	0.996
